This is one part of the list. Cut-off read from the data, not from the text of the source: active = 3.2 or more and inactive = the rest. The signal is at background level for most entries.
B1: IGF2R_Y2024_N2020S (peptide)
chain: HSGVSYYINLC
B2: IGF2R_Y2024_N2020S_YF (peptide)
chain: HSGVSYFINLC
B3: IGF2R_Y2025 (peptide)
chain: NGVSYYINLCQ
B4: IGF2R_Y2025_YF (peptide)
chain: NGVSFYINLCQ
B5: IGFALS_Y248 (peptide)
chain: RLQKLYLDRNL
B6: IGFALS_Y248_L244F (peptide)
chain: RFQKLYLDRNL
B7: IGFBP1_Y181 (peptide)
chain: CRIELYRVVES
B8: IGFBP1_Y181_V183I (peptide)
chain: CRIELYRIVES
B9: IGHV1-46_Y51 (peptide)
chain: YTFTSYYMHWV
B10: IGLL1_Y192_R189H (peptide)
chain: RSHRSYSCQVM
B11: IGSF10_Y126 (peptide)
chain: QKDTFYGLRSL
B12: IGSF10_Y126_T124I (peptide)
chain: QKDIFYGLRSL
B13: IGSF22_Y501 (peptide)
chain: GDPTEYYSTAI
B14: IGSF22_Y501_S503I (peptide)
chain: GDPTEYYITAI
B15: IGSF9_Y656 (peptide)
chain: KRLDGYVLEGR
B16: IGSF9_Y81 (peptide)
chain: RIDPDYVGRVR
B17: IKBKB_Y199 (peptide)
chain: LEQQKYTVTVD
B18: IKBKG_Y308_D311N (peptide)
chain: AQADIYKANFQ
B19: IL17RB_Y447_I451T (peptide)
chain: KYVVVYFRETD

These binders were tested against SHP2 C-SH2 domain E139D (assay: enrichment score (SH2-bound / input frequency) (ratio); bacterial display of known human phosphotyrosine sites (pTyr-Var adds point mutants) read by sequencing; higher = stronger binding; tyrosines were phosphorylated by kinases first). Conditions: peptide library: pTyr-Var.
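Note: displayed peptides selected on beads carrying the immobilized SH2 domain, with library peptides lacking any tyrosine serving as negative controls.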

| Binder | enrichment score |
| --- | --- |
| B1 | inactive: 0.58 |
| B2 | inactive: 0.979 |
| B3 | inactive: 0.727 |
| B4 | inactive: 0.897 |
| B5 | inactive: 1.08 |
| B6 | inactive: 0.774 |
| B7 | inactive: 1.29 |
| B8 | inactive: 1.21 |
| B9 | inactive: 1.97 |
| B10 | inactive: 1.75 |
| B11 | inactive: 0.809 |
| B12 | inactive: 1.19 |
| B13 | inactive: 0.622 |
| B14 | inactive: 0.481 |
| B15 | inactive: 0.777 |
| B16 | inactive: 0.599 |
| B17 | inactive: 0.755 |
| B18 | inactive: 0.776 |
| B19 | active: 4.48 |

What follows are binders tested against SHP2 C-SH2 domain wild-type in the same assay as above. Conditions: peptide library: pTyr-Var.

| Binder | enrichment score |
| --- | --- |
| B1 | inactive: 1.07 |
| B2 | inactive: 1.38 |
| B3 | inactive: 0.909 |
| B4 | inactive: 1.07 |
| B5 | inactive: 0.904 |
| B6 | inactive: 0.77 |
| B7 | inactive: 1.38 |
| B8 | inactive: 1.35 |
| B9 | inactive: 1.97 |
| B10 | inactive: 1.44 |
| B11 | inactive: 0.753 |
| B12 | inactive: 0.818 |
| B13 | inactive: 0.638 |
| B14 | inactive: 1.03 |
| B15 | inactive: 0.725 |
| B16 | inactive: 0.704 |
| B17 | inactive: 0.943 |
| B18 | inactive: 0.717 |
| B19 | active: 4.69 |

The binders below were run against SHP2 N-SH2 domain L43F in the same assay as above. Conditions: peptide library: pTyr-Var.

| Binder | enrichment score |
| --- | --- |
| B1 | inactive: 0.637 |
| B2 | inactive: 0.642 |
| B3 | inactive: 0.649 |
| B4 | inactive: 0.832 |
| B5 | inactive: 1.41 |
| B6 | inactive: 0.612 |
| B7 | inactive: 1.2 |
| B8 | inactive: 1.1 |
| B9 | inactive: 1.64 |
| B10 | inactive: 1.3 |
| B11 | inactive: 0.847 |
| B12 | inactive: 1.09 |
| B13 | inactive: 0.664 |
| B14 | inactive: 0.735 |
| B15 | inactive: 0.843 |
| B16 | inactive: 0.711 |
| B17 | inactive: 0.748 |
| B18 | inactive: 0.73 |
| B19 | active: 9.54 |

The binders below were run against SHP2 N-SH2 domain T42A in the same assay as above. Conditions: peptide library: pTyr-Var.

| Binder | enrichment score |
| --- | --- |
| B1 | inactive: 0.657 |
| B2 | inactive: 0.815 |
| B3 | inactive: 0.631 |
| B4 | inactive: 0.592 |
| B5 | inactive: 1.29 |
| B6 | inactive: 0.691 |
| B7 | inactive: 0.97 |
| B8 | inactive: 0.854 |
| B9 | inactive: 1.62 |
| B10 | inactive: 1.23 |
| B11 | inactive: 1.15 |
| B12 | inactive: 0.995 |
| B13 | inactive: 0.534 |
| B14 | inactive: 0.764 |
| B15 | inactive: 0.638 |
| B16 | inactive: 0.564 |
| B17 | inactive: 0.79 |
| B18 | inactive: 0.604 |
| B19 | active: 8.72 |

The binders below were run against SHP2 N-SH2 domain T52S in the same assay as above. Conditions: peptide library: pTyr-Var.

| Binder | enrichment score |
| --- | --- |
| B1 | inactive: 0.545 |
| B2 | inactive: 0.714 |
| B3 | inactive: 0.559 |
| B4 | inactive: 0.697 |
| B5 | inactive: 0.84 |
| B6 | inactive: 0.701 |
| B7 | inactive: 1.11 |
| B8 | inactive: 0.966 |
| B9 | inactive: 1.82 |
| B10 | inactive: 1.57 |
| B11 | inactive: 0.641 |
| B12 | inactive: 1.07 |
| B13 | inactive: 0.558 |
| B14 | inactive: 0.658 |
| B15 | inactive: 0.671 |
| B16 | inactive: 0.538 |
| B17 | inactive: 0.947 |
| B18 | inactive: 0.889 |
| B19 | active: 11.4 |

What follows are binders tested against SHP2 N-SH2 domain wild-type in the same assay as above. Conditions: peptide library: pTyr-Var.

| Binder | enrichment score |
| --- | --- |
| B1 | inactive: 1.12 |
| B2 | inactive: 1.36 |
| B3 | inactive: 0.968 |
| B4 | inactive: 1.09 |
| B5 | inactive: 0.91 |
| B6 | inactive: 0.793 |
| B7 | inactive: 1.61 |
| B8 | inactive: 1.54 |
| B9 | inactive: 1.87 |
| B10 | inactive: 1.28 |
| B11 | inactive: 1.16 |
| B12 | inactive: 0.95 |
| B13 | inactive: 0.758 |
| B14 | inactive: 0.897 |
| B15 | inactive: 0.816 |
| B16 | inactive: 0.712 |
| B17 | inactive: 0.904 |
| B18 | inactive: 0.835 |
| B19 | active: 4.66 |
